# Experimental data taken from the supplement of paper PMC4967469.
# By IC50 is meant the dose at which the fit gives 50% viability; fits outside the tested doses are given as limits. The AUC spans the tested range (256-fold, ending at the top dose) of the same fit; the more sensitive the line, the further below 1. For part of these data: The top dose, if marked as inferred, was calculated from the reported fits.
# Experiments:
# Test in all cases: Viability of human cancer cell lines after 72 h of drug (GDSC screen)
# [1] = compound: Cc1cccc(Nc2nc(-c3ccncc3)cs2)c1 [STF-62247]; details: top dose 10.24 µM; top dose inferred
# Experimental: (§1)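 Human cancer cell lines in 384-well plates, medium with 10% serum, drug for 72 h over a 256-fold dose range (nine 2-fold or five 4-fold steps up to the top dose). Adherent lines were fixed and stained with the nucleic acid dye Syto60, suspension lines read with resazurin; signal relative to control wells, capped at 0 and 100%. One two-parameter sigmoid per drug and line, fitted in a mixed model over all curves with the slope shared within a line.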
# [2] = compound: Cc1cnc(CNC(=O)c2c(=O)c3ccc(N4CCCN(C)CC4)nc3n3c2sc2ccccc23)cn1 [CX-5461]; details: top dose 10.24 µM; top dose inferred
# Experimental: as §1
# [3] = compound: COCC(=O)NC/C=C/c1ccc2ncnc(Nc3ccc(Oc4ccc(C)nc4)c(C)c3)c2c1 [CP724714]; details: top dose 10.24 µM; top dose inferred
# Experimental: as §1
# [4] = compound: COC1=CC(c2cc3ccccc3[nH]2)=N/C1=C\c1[nH]c(C)cc1C [Obatoclax mesylate]; details: top dose 16 µM
# Experimental: as §1
# [5] = compound: CC(=O)O[C@H]1C(=O)[C@@]2(C)[C@H]([C@H](OC(=O)c3ccccc3)[C@]3(O)C[C@H](OC(=O)[C@H](O)[C@@H](NC(=O)c4ccccc4)c4ccccc4)C(C)=C1C3(C)C)[C@]1(OC(C)=O)CO[C@@H]1C[C@@H]2O [Paclitaxel]; details: top dose 0.1024 µM
# Experimental: as §1
# [6] = compound: CC(C)C[C@H](NC(=O)[C@H](Cc1ccccc1)NC(=O)c1cnccn1)B(O)O [Bortezomib]; details: top dose 0.02 µM
# Experimental: as §1
Cell Line,AUC [1],IC50 [1] [µM],AUC [2],IC50 [2] [µM],AUC [3],IC50 [3] [µM],AUC [4],IC50 [4] [µM],AUC [5],IC50 [5] [µM],AUC [6],IC50 [6] [µM]
"EoL-1-cell (haematopoietic neoplasm, suspension)",0.715,2.39,0.452,0.481,0.917,> 10.2,0.17,0.118,0.616,0.0128,0.861,0.0138
"GB-1 (glioma, adherent)",0.98,> 10.2,0.427,0.389,0.978,> 10.2,0.254,0.171,0.756,0.0408,0.63,0.00306
"GCIY (stomach, adherent)",0.961,> 10.2,0.919,> 10.2,0.944,> 10.2,0.351,0.365,0.891,> 0.102,0.52,0.00143
"GDM-1 (acute myeloid leukaemia, suspension)",0.943,> 10.2,0.535,0.793,0.976,> 10.2,0.451,0.741,0.625,0.0139,0.461,0.000982
"GI-1 (glioma, adherent)",0.968,> 10.2,0.821,5.61,0.982,> 10.2,0.309,0.298,0.392,0.00328,0.415,0.000738
"GI-ME-N (neuroblastoma, adherent)",0.94,> 10.2,0.64,1.8,0.941,> 10.2,0.611,2.26,0.761,0.0492,0.465,0.000969
"GOTO (neuroblastoma, adherent)",0.978,> 10.2,0.426,0.389,0.975,> 10.2,0.645,2.67,0.854,0.0983,0.82,0.0135
"GR-ST (lymphoblastic leukaemia, suspension)",0.908,> 10.2,0.836,8.93,0.926,> 10.2,0.083,< 0.0625,0.79,–,0.92,> 0.02
"GT3TKB (stomach, adherent)",0.984,> 10.2,0.976,> 10.2,0.987,> 10.2,0.22,0.174,0.336,0.00238,0.537,0.00156
"H9 (lymphoid neoplasm, suspension)",0.981,> 10.2,0.992,> 10.2,0.974,> 10.2,0.168,0.128,0.466,0.00527,0.407,0.000731
"H-EMC-SS (chondrosarcoma, adherent)",0.963,> 10.2,0.803,6.91,0.972,> 10.2,0.64,2.73,0.975,> 0.102,0.819,0.016
"HA7-RCC (kidney, adherent)",0.985,> 10.2,0.985,> 10.2,0.971,> 10.2,0.386,0.468,0.617,0.0139,0.487,0.00114
"HAL-01 (lymphoblastic leukaemia, suspension)",0.919,> 10.2,0.283,0.17,0.988,> 10.2,0.049,< 0.0625,0.982,> 0.102,0.553,0.00172
"HC-1 (hairy cell leukaemia, suspension)",0.89,> 10.2,0.518,0.714,0.987,> 10.2,0.549,1.35,0.532,0.00778,0.605,0.0024
"HCC1599 (breast, suspension)",0.968,> 10.2,0.57,1.03,0.975,> 10.2,0.328,0.308,0.694,0.0245,0.752,0.00748
"HCC2157 (breast, suspension)",0.908,> 10.2,0.987,> 10.2,0.982,> 10.2,0.521,1.15,0.866,0.0993,0.68,0.00409
"HCC-33 (small cell lung carcinoma, adherent)",0.988,> 10.2,0.96,> 10.2,0.965,> 10.2,0.771,6.21,0.887,> 0.102,0.682,0.00407
"HD-MY-Z (Hodgkin lymphoma, adherent)",0.982,> 10.2,0.844,7.39,0.96,> 10.2,0.754,5.42,0.635,0.0151,0.579,0.00206
"HDLM-2 (Hodgkin lymphoma, suspension)",0.989,> 10.2,0.989,> 10.2,0.988,> 10.2,0.345,0.374,0.724,–,0.713,0.00496
"HEL (acute myeloid leukaemia, semi-adherent)",0.915,> 10.2,0.526,0.742,0.965,> 10.2,0.143,0.104,0.804,–,0.537,0.00155
"HSC-39 (stomach, suspension)",0.975,> 10.2,0.37,0.296,0.99,> 10.2,0.789,6.01,0.788,0.0383,0.66,0.00325
